The whole screen tested about 270,000 compounds, of which about 620 (0.23%) were called active. The shares of active, inactive and inconclusive entries below differ from those in the screen. Calls come from the whole dose curve; as a rule, active = well fitted inhibition curve with a large enough effect in the polarisation, with a control signal flat (not every such curve was filed as active); inconclusive = small, poorly fitted or top-dose-only effect, or effect the other way, or a change in a side signal; inactive = no such curve, though single readings can be large or run the other way; the % refers to the polarisation. Potencies beside an inconclusive call are fits to weak or partial responses and may not hold up. “Side channel” marks fits to a control or component signal instead of the main read-out.
These compounds were tested against Menin (Homo sapiens) (UniProt O00255) (assay: qHTS Assay for Inhibitors Targeting the Menin-MLL Interaction in MLL Related Leukemias: Competition With Texas Red Labeled MLL-derived Mutant Peptide). Details: fluorescence polarization; series mostly up to 61.6 µM.
Potency is the fitted concentration of half-maximal effect; tags give direction and shape of the fitted curve or compound fluorescence and quenching.

UniProt O00255, sequence (O00255 whole entry, looked up): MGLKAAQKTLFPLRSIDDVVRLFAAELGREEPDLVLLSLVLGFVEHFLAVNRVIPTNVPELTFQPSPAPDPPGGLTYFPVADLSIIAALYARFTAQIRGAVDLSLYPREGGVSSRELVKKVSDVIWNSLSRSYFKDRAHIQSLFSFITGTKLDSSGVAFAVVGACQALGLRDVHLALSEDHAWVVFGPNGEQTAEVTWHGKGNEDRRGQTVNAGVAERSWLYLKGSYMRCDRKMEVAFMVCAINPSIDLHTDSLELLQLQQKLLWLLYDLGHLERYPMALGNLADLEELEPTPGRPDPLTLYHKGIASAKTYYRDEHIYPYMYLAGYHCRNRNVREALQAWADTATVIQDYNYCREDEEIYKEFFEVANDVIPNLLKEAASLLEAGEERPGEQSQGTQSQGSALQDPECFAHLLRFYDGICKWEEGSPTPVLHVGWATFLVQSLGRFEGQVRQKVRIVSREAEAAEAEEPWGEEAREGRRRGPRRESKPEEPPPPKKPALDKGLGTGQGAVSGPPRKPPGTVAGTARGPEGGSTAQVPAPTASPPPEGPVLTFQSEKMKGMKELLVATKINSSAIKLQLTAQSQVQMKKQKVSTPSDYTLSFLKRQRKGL

Structure (SMILES)	Potency
COc1ccccc1C1=NC(c2ccccc2)CN1c1ccccc1 (configuration not stated)	inconclusive: 14.1 µM [quencher, side channel, partial curve]
CN1CCc2c(OCC(=O)N3CCC(Cc4ccccc4)CC3)cccc2C1=O	inconclusive: 14.1 µM [fluorescent, side channel, partial curve]
Cc1ccc(Sc2ccc(/C=N/O)cc2[N+](=O)[O-])cc1	inconclusive: 35.5 µM [quencher, side channel, single point]
CCOc1ccc(N2C(=O)CC(S/C(N)=N/N=C/c3cccs3)C2=O)cc1 (configuration not stated)	inconclusive: 4.47 µM [inhibitor, full curve]
COc1cc(/C=N/N2CCN(C3c4ccccc4-c4ccccc43)CC2)ccc1O	inconclusive: 25.1 µM [quencher, side channel, single point]
CN1CCN(CCCNCc2cn(CCC#N)c3ccccc23)CC1	inconclusive: 39.8 µM [inhibitor, single point]
Cc1ccc2cc3cc(C(=O)NCCN4CCOCC4)oc3nc2c1	inconclusive: 11.2 µM [inhibitor, partial curve, poor fit]
O=C(Nc1cccnc1)Nc1cc(Cl)cc(Cl)c1	inconclusive: 10 µM [quencher, side channel, partial curve]
COc1ccc(OCC(O)CNc2ccc(Br)cc2)cc1 (configuration not stated)	inconclusive: 31.6 µM [quencher, side channel, single point]
CC(C)(C)OC(=O)N/N=C/c1cc(N=Nc2ccccc2)ccc1O	inconclusive: 20 µM [quencher, side channel, partial curve]
Cc1ccccc1NC(=O)c1ccccc1NC(=O)c1ccccc1F	inconclusive: 35.5 µM [inhibitor, single point]
COc1ncc2nc(-c3cccs3)c(=O)n(-c3ccccc3)c2n1	inconclusive: 35.5 µM [inhibitor, single point]
CCn1cc(Br)c(C(=O)Nc2ccccc2C(=O)OC)n1	inconclusive: 12.6 µM [quencher, side channel, partial curve]
NC(=O)COC(=O)c1ccc(Cl)c(S(=O)(=O)N2CCN(c3ccc(F)cc3)CC2)c1	inconclusive: 31.6 µM [quencher, side channel, single point]
CCCCCCCCCCCCCCCCCC(=O)NCC(COP(=O)([O-])OCC[N+](C)(C)C)OCC (configuration not stated)	inconclusive: 39.8 µM [fluorescent, side channel, single point]
Cn1cnnc1SC(C(=O)Nc1ccc(F)cc1)c1ccccc1 (configuration not stated)	inconclusive: 3.16 µM [fluorescent, side channel, single point]
Cc1cc(C)c(C)c(S(=O)(=O)N2CCC(C(=O)Nc3ccccc3N3CCOCC3)CC2)c1C	inconclusive: 1.41 µM [fluorescent, side channel, full curve]
COc1ccc(NC(=O)CSCc2ccc([N+](=O)[O-])cc2)cc1OC	inconclusive: 39.8 µM [quencher, side channel, single point]
Cc1cccc(C)c1OCc1nc2ccccc2c(=O)n1/N=C/c1c[nH]c2ccccc12	inconclusive: 17.8 µM [inhibitor, single point]

Structure (SMILES)	Potency
CCOc1ccc(NC2=NC(C)(C)N=C(N)N2)cc1	inconclusive: 39.8 µM [inhibitor, single point]
N=c1n(CCN2CCCC2)c2ccccc2n1CC(O)c1ccc(Cl)c(Cl)c1 (configuration not stated)	inconclusive: 28.2 µM [inhibitor, single point]
Nc1c(-c2ccccn2)cnn1-c1nc(-c2ccc(F)cc2)cs1	inconclusive: 12.6 µM [quencher, side channel, partial curve]
O=C(CSc1nc2ncccc2[nH]1)NC1CCCCC1	inactive
O=C(CC(NC(=O)c1ccccc1Cl)c1ccccc1)Nc1ccc2c(c1)OCO2 (configuration not stated)	inconclusive: 25.1 µM [inhibitor, partial curve]
CN(c1ccccc1)S(=O)(=O)c1cccc(NC(=O)Cn2cnc3ccccc3c2=O)c1	inconclusive: 31.6 µM [quencher, side channel, single point]
CCOc1cc(Br)cc(C(c2c(C(=O)O)[nH]c3ccccc23)c2c(C(=O)O)[nH]c3ccccc23)c1O	inconclusive: 14.1 µM [quencher, side channel, partial curve]
O=C(COc1ccc(F)cc1)Nc1nnc(-c2ccncc2)s1	inconclusive: 39.8 µM [inhibitor, single point]
CCc1nc(Nc2cccc(O)c2)c2oc3ccccc3c2n1	inconclusive: 14.1 µM [quencher, side channel, partial curve]
O=C(c1cnccn1)N1CCC2(CC1)CN(C(c1ccccc1)c1ccccc1)C2	inactive
CCOC(=O)c1sc2ncn(/N=C/c3ccc(O)c(OC)c3)c(=O)c2c1C	inconclusive: 31.6 µM [quencher, side channel, single point]
CCN(CCNCC(O)COc1ccccc1C(C)C)c1cccc(C)c1 (configuration not stated)	inconclusive: 2.82 µM [fluorescent, side channel, full curve]
CN(C)C1CCc2[nH]c3ccc(NC(=O)c4ccc(F)cc4)cc3c2C1 (configuration not stated)	inactive
COC(=O)c1ccc(COc2ccc(/C=N/O)cc2OC)o1	inconclusive: 39.8 µM [inhibitor, single point]
CCOC(=O)C1(Cc2ccccc2C(F)(F)F)CCN(Cc2ccc(COC)o2)CC1	inconclusive: 14.1 µM [fluorescent, side channel, partial curve]
CC/C(=N\NC(=O)CNC(=O)/C=C/c1ccc(OC)cc1)c1ccccc1	inactive
O=C(Nc1cccc(C(F)(F)F)c1)c1ccc(N2CCNCC2)c([N+](=O)[O-])c1	inconclusive: 14.1 µM [quencher, side channel, partial curve]
CCOc1cc2c(C#N)c(N3CCOCC3)nc(N)c2c(N)n1	inconclusive: 17.8 µM [quencher, side channel, single point]

— PubChem BioAssay AID1768 (National Center for Advancing Translational Sciences (NCATS), 2009)
